Reference: the supplement of paper PMC11417369
± gives the standard deviation of the averaged measurements. The list shows a part of the results.

System: PfAP2-EXP AP2 domain (GST-tagged)
Assay: gcPBM binding intensity (ln(normalized median fluorescence intensity)); higher = stronger DNA binding
Outline: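 Alexa488 anti-GST antibody, scanned at 488 nm, detected GST-tagged P. falciparum DNA-binding domains that had been expressed in E. coli and incubated for 1 h on an Agilent 4 × 180k array. The array carried primer-extended double-stranded 36-bp intergenic genomic probes and negative controls. Binding intensity is the highest Masliner-normalised natural-log median intensity across replicate spots of either orientation of each probe.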

Sequence	gcPBM binding intensity (ln)
TTGTTTTGGATTATCACACATATAATATATACTCAT [CACACA_site4780]	8.65 ± 0.35
TTTTCCTTTTTTTTTACATGCAGATATAGAAAGGTA [TGCATGCA_site106]	8.88 ± 0.19
GTAATTTTTTTCTATACACACATATCTATAATATAT [CACACA_site7284]	8.77 ± 0.38
TACTTATAATTTCAATGTACATATATATAATATCAT [XGTACX_site2424]	8.39 ± 0.37
TTTTTATAAGCATAAAGTACAAATATTTTTTAGTTG [XGTACX_site4140]	8.21 ± 0.38
TAAATCCGTTTGATGGGTACATACATACATACATAT [XGTACX_site8889]	8.44 ± 0.33
AACACCCATGGACACACACACATATATATATATATA [CACACA_site5809]	10.1 ± 0.51
ATTTATTTTAGTAAAGCACACGTGTAAAATATATCT [CACACA_site4820]	9.07 ± 0.41
ACAATAAAATATGGCACACATATATATATATATTTA [CACACA_site3]	8.43 ± 0.34
TTATTACATATAAAGGAAAATAGCATCTAGATTAAA [XGTACX_negctrl_site435]	8.45 ± 0.35
TCTTTTTTGAACTAGCGTACATGAAAATATTTATAG [XGTACX_site7359]	8.51 ± 0.33
TTTTTATTTATATATAAGGAAAATGCGGTATATATT [CACACA_negctrl_site1770]	8.59 ± 0.42
AAAAAAAAAAAAAAAAAATACATATACATTTGTGCA [CACACA_negctrl_site1431]	8.66 ± 0.11
AAAAAAAAAAAAAACACACACACACCCAAATACATA [CACACA_site708]	8.63 ± 0.43
TTTTTTCTTTTCAAGGTGCTTTATAAGAAAAAGGGA [GTGCAC_site9858]	8.38 ± 0.18
AGTATTATATTTTCTTGTACACATGTAAAATACCTC [XGTACX_site1359]	8.95 ± 0.39
TATTTTATCATTTGCACACGCACACCCACATAAAAA [CACACA_site354]	8.83 ± 0.42
TATATTAAAACAAGCACACAATCGCATAATATCCTT [CACACA_site3210]	8.41 ± 0.51
AAAAAAAAAAAAAAAACACACATATATGTATATATA [CACACA_site3276]	8.28 ± 0.5
CAATTACGCAGGAATGCACACAATAATAAAAAAAAT [CACACA_site3513]	8.77 ± 0.43
ATATATATATATATATGTACATATTTTTTATTTTAT [XGTACX_site5761]	10.1 ± 0.5
ATATGTTACTTTACATAAAGAAGAAGAAGAAGAAAA [CACACA_negctrl_site985]	8.59 ± 0.37
TATTATTCAAATAAAAGAAAAATATATATATTATAT [GTGCAC_negctrl_site273]	8.3 ± 0.41

Sequence	gcPBM binding intensity (ln)
TCCCCCTTTTTTTGATTTTTATCTTAATTCTAAAAG [GTGCAC_negctrl_site541]	8.51 ± 0.39
TTTCAAAAAGGAAGAAAAAAAAAAAAAAAAAATATA [XGTACX_negctrl_site514]	8.22 ± 0.55
TTTTTTTTTTGTAATACACACCACTATATGTTATTT [CACACA_site5087]	8.76 ± 0.38
AAACATTTAAATGGAAACACAGAAAAATGAAAAATG [CACACA_negctrl_site457]	9.14 ± 0.5
ATATATATATATACATGTACATATATACATTATATT [XGTACX_site936]	9.99 ± 0.45
ATGTTATATTTTTTTATACACACTGGAATATATAAA [CACACA_site215]	8.57 ± 0.45
ATTATTATTGTCAAATGTACAAGCTAATAATTTTTA [XGTACX_site7167]	8.23 ± 0.35
ATTTATAATGAGTATACACACATATATAGATTTGCT [CACACA_site4517]	8.44 ± 0.43
TATATATATATATATTGTACTTTATTTTATATATTC [XGTACX_site5697]	10 ± 0.4
AAAAAAAAAAAAAACATACACACAAGAACAAAATAT [CACACA_site3003]	8.93 ± 0.52
CAACAACATTTTTCATGTACATATATTTTATAATAT [XGTACX_site519]	8.6 ± 0.31
TAAAAAATAAAATACACACACATATTTATATTTATA [CACACA_site6737]	8.14 ± 0.59
ATTTTCAAATTATCAGATGAATCTTTTTAAGATCTT [XGTACX_negctrl_site598]	8.02 ± 0.36
AAACTATACCAAAACACACATACAAAATATAAAAAA [CACACA_site2707]	8.82 ± 0.33
GGGAAAAAATGAGGTCGTACATTTTTCATCACAAAT [XGTACX_site8920]	8.64 ± 0.52
GTCTGCATATGGATACGTACACATATATATTAATGT [XGTACX_site2260]	8.78 ± 0.17
TTTTTTTTTTTTTTTTTACACACTGCATACAAGAAA [CACACA_site3026]	8.46 ± 0.42
CTCATATATAACACATGTACACAGATTTTGCAAATG [XGTACX_site6879]	9.21 ± 0.43
AATGAATGTACATACGCATGTACTTGACTAAATTAT [TGCATGCA_site436]	8.81 ± 0.36
TTTTTTATGAGGTGGTGTACTTTTTTTTTTTTCTTT [XGTACX_site8550]	8.48 ± 0.54
ATAAATAAAACAACAGTGCAATAAAATTAGTTGAGG	9.035 ± 0.021
TGGTAATACCCATACACACACACATACCCATATATA [CACACA_site5509]	8.61 ± 0.49
ATTAAAGAGAGACATCAACACACATACGTATGTATA [CACACA_site8393]	8.39 ± 0.46

Sequence	gcPBM binding intensity (ln)
TTCAAATAAATAGTAGTGCATATTTATTAATGTAAA	8.52 ± 0.13
CAAGAAACAGTGATACGTACACATATATATATATAT [XGTACX_site3229]	10.2 ± 0.32
TAATATATTATAAACACATGCACATTAATAATAACT [TGCATGCA_site708]	8.92 ± 0.18
ATATGAAACATGAAGGTGCATAATGTGTATATTTAT	8.92 ± 0.14
ACATAAATATATTTTTCACACATCATTAGTTATGAA [CACACA_site4724]	8.66 ± 0.51
TATATATATATATATGTGCACATTTTATTAAAATGT	10.2 ± 0.34
ATAGACATTTTACTTTGTACATATAAACATATATAT [XGTACX_site2733]	8.79 ± 0.56
TATTTTTTAAAAAAACGTACAAACATAATAAAAATA [XGTACX_site1857]	8.96 ± 0.44
AAGGTATGATTAATCACACACATAAATATAAATACA [CACACA_site5464]	8.46 ± 0.13
AAGCTTCATTAATATACACACATATATGTGTATATT [CACACA_site7693]	8.61 ± 0.41
ATAAAATATAGGTATGCACACACATATACTTCTGTG [CACACA_site8398]	8.53 ± 0.3
GATATATGTATAATAACGCACACTACAAAAATAAAA [CACACA_site2100]	8.77 ± 0.31
AATAAAGAAGAAGAAAGTACACATTTCACAAAGGGG [XGTACX_site1308]	8.94 ± 0.42
TATATAATACGAATTTGTACATATTAAATAAATTAT [XGTACX_site93]	8.41 ± 0.37
GTTAGTTTTAGTTCATGTACATAATAGAAAATATAT [XGTACX_site7125]	8.64 ± 0.25
AAAAAAAAAAACGACAGTACAATTATAATTTATATT [XGTACX_site2365]	8.55 ± 0.54
AGAGTTAAACGATATATATAAATATATATATATATA [GTGCAC_negctrl_site316]	9.87 ± 0.33
AGATCATAATATTATACACACATTAGATATAGGTAA [CACACA_site6809]	8.54 ± 0.36
ATGTCTTAAAAATTAAAACACACGTTCACTTTCATA [CACACA_site3385]	8.49 ± 0.38
ATATTAATGATATATACACACATAAGTATTGTATAT [CACACA_site7844]	8.18 ± 0.43
AAATGTAATTTGTCTTTTATTTATATTTGACATGAT [TGCATGCA_negctrl_site520]	8.04 ± 0.43
TTTTTTTTTTTTTTTTTTTTTTTGCTCAGTGTGGTA [CACACA_negctrl_site29]	7.97 ± 0.43
TTGATGGGAAAAAACTTTTTTTTCTTTTTTTCTTTC [CACACA_negctrl_site328]	8.04 ± 0.5

Sequence	gcPBM binding intensity (ln)
AAAAATTATAAAAAACAAATATTAAATAATTATTAA [GTGCAC_negctrl_site125]	8.24 ± 0.35
AAAAGGAAGATATATACACACATACAAATATTTATA [CACACA_site7093]	8.74 ± 0.4
TATCACCCACCATGAAGTACATATTACCATTTGATG [XGTACX_site845]	8.78 ± 0.71
ATAAATAAATAAAAGCGTACATATATATAAAATATA [XGTACX_site8107]	8.63 ± 0.27
TTATACTAAATGAACACACACACATATATATATATA [CACACA_site99]	10 ± 0.5
AATTAAATGTTTCTAAGATATACGACCAATGTATTT [CACACA_negctrl_site1694]	8.24 ± 0.49
AATTAATGGGTACATACACACATATATACATACATA [CACACA_site742]	8.44 ± 0.41
CATCAATGCTAATTATGTACTTACATAAATAACCCT [XGTACX_site968]	8.44 ± 0.31
ATACCTAAAAAATATACACACATATATATAAATATA [CACACA_site2580]	8.29 ± 0.41
TGTATTATCTCTTATGAACACACATTTTTATTTTCA [CACACA_site9107]	8.66 ± 0.29
ATGTTAATTAATGAGGTGCATTGAATATTTCAATAA	8.63 ± 0.042
AGAAGAAAACAAAACACACACATATATCTTAATATA [CACACA_site2231]	8.64 ± 0.54
AAAAAAAAAAACTTTGCATGTAATAATAAAAAAAAA [TGCATGCA_site81]	8.8 ± 0.26
TGGTGAAAAATATAAATATAAATAAATATATATATA [CACACA_negctrl_site1725]	9.62 ± 0.16
ATGATCTGTTTGTTTGTGCACATATATATATATTAA	9.37 ± 0.23
AAATAAATTGAAGATACATGCATATTTTTTTTTTAT [TGCATGCA_site686]	8.41 ± 0.35
GAATATTTATGATGAACTATTAATTAATTTTACATA [GTGCAC_negctrl_site353]	8.09 ± 0.39
TATATATTACATAAAACACACAAAAAAAAAATTAAA [CACACA_site3882]	8.51 ± 0.62
TTTATATTTTTTTTTGCACACTTTAAAAAAATATAT [CACACA_site1146]	8.89 ± 0.24
ATGTAGAGTAATAGTTGTACAAGGTGTATATCTCAT [XGTACX_site6370]	9.03 ± 0.46
